The values that follow come from the supplement of paper PMC9446081.

The structures appear in SMILES notation. Hit rate of the full screen: of about 39,000 compounds, about 220 (0.56%) showed activity. This is one part of the list.
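Also: static incubation at 37 °C against the wild-type strain, values averaged over two biological replicates.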

This test concerns Escherichia coli K-12 BW25113. As to the kind of experiment: relative growth (OD600 normalised to plate interquartile mean) (fraction); higher = less growth inhibition, active = 0.2 or less. The note with it: 50 µM; LB; incubation time: overnight (16-24 h).
As for `C[C@@H]1CN([C@@H](C)CO)C(=O)c2cc(NS(=O)(=O)c3cccs3)ccc2O[C@H]1CN(C)S(=O)(=O)c1cccs1`, the relative growth was inactive: 1.01.

As for `N[C@H]1CC[C@H](CCn2cc(-c3cccc(F)c3)nn2)O[C@@H]1CO`, the relative growth was inactive: 0.991.

For `O=C(C[C@@H]1CC[C@H]2[C@@H](COC[C@@H](O)CN2S(=O)(=O)c2ccccc2F)O1)NCc1ccccc1Cl`, the relative growth is inactive: 1.03.

As to `Nc1nnnn1/N=C\c1ccc(O)cc1`, the relative growth is inactive: 0.995.

`COc1ccc(NC(=O)N[C@H]2CC[C@@H](CCNC(=O)CN3CCOCC3)O[C@H]2CO)cc1`: the relative growth is inactive: 0.99.

In the case of `Cc1noc(C)c1NC(=O)Nc1ccc2c(c1)C(=O)N([C@@H](C)CO)C[C@@H](C)[C@@H](CN(C)C(=O)C1CCCCC1)OCCCC[C@@H](C)O2`, the relative growth is inactive: 0.98.

Take `CO[C@@H]1CN(C)C(=O)c2ccc(NC(=O)C3CC3)cc2OC[C@H](C)N(C(=O)Cc2ccccn2)C[C@H]1C`: the relative growth is inactive: 0.982.

`CN1CCN(C(=O)C[C@@H]2C[C@@H]3c4cc(NS(=O)(=O)c5ccc(F)cc5)ccc4O[C@@H]3[C@H](CO)O2)CC1`: the relative growth was inactive: 1.01.

With `C[C@@H]1CN([C@H](C)CO)C(=O)CCCn2nncc2CO[C@@H]1CN(C)C(=O)Nc1cccc(Oc2ccccn2)c1`, the relative growth was inactive: 0.992.

Regarding `C[C@@H]1CCCCO[C@H](CN(C)Cc2ccc3c(c2)OCO3)[C@H](C)CN([C@H](C)CO)C(=O)c2cc(NC(=O)Cc3ccccc3)ccc2O1`, the relative growth was inactive: 1.01.

With `C[C@@H]1CCCCO[C@H](CN(C)Cc2ccc3c(c2)OCO3)[C@H](C)CN([C@@H](C)CO)C(=O)c2cc(NC(=O)Nc3ccc(F)cc3)ccc2O1`, the relative growth was inactive: 0.983.

In the case of `C[C@@H]1CCCCO[C@H](CN(C)C(=O)c2ccncc2)[C@@H](C)CN([C@H](C)CO)C(=O)c2cc(NS(=O)(=O)c3cn(C)cn3)ccc2O1`, the relative growth was inactive: 0.971.

In the case of `CO[C@H]1CN(C)C(=O)c2cc(NC(=O)C3CCOCC3)ccc2OC[C@@H](C)N(Cc2cccnc2)C[C@H]1C`, the relative growth was inactive: 1.02.

On to `O=C(C[C@H]1CC[C@H]2[C@@H](COC[C@@H](O)CN2S(=O)(=O)c2cccc(Cl)c2)O1)NC1Cc2ccccc2C1`, for which the relative growth is inactive: 0.907.

Consider `COc1ccc(CN(C)C[C@H]2OCCCC[C@@H](C)Oc3ccc(NS(=O)(=O)c4cccs4)cc3C(=O)N([C@@H](C)CO)C[C@@H]2C)cc1`, for which the relative growth is inactive: 1.

For `CCn1c(CN2CCN(C(=O)c3ccco3)CC2)nc2c1c(=O)n(C)c(=O)n2C`, the relative growth was inactive: 1.01.

Take `COc1ccc(S(=O)(=O)N(C)C[C@H]2OCCCC[C@H](C)Oc3ccc(NS(=O)(=O)c4ccc(Cl)cc4)cc3C(=O)N([C@@H](C)CO)C[C@@H]2C)cc1`: the relative growth is inactive: 0.981.

For the compound `C[C@@H]1CN([C@@H](C)CO)C(=O)c2cc(NC(=O)C3CCCCC3)ccc2O[C@@H]1CN(C)C(=O)Nc1cccc2ccccc12`, the relative growth is inactive: 1.01.

With `C[C@H]1CN([C@@H](C)CO)S(=O)(=O)c2ccc(-c3ccc(C(=O)N(C)C)cc3)cc2O[C@@H]1CN(C)C(=O)C1CC1`, the relative growth is inactive: 1.02.

With `C[C@@H]1CN([C@@H](C)CO)C(=O)c2cccc(NS(=O)(=O)c3cn(C)cn3)c2O[C@H]1CN(C)S(=O)(=O)c1cn(C)cn1`, the relative growth is inactive: 0.974.

As to `C[C@H]1CN([C@@H](C)CO)C(=O)c2cc(NC(=O)Cc3ccccc3)ccc2O[C@@H]1CN(C)C(=O)Nc1cccc2ccccc12`, the relative growth is inactive: 0.961.

On to `C[C@@H]1CN([C@H](C)CO)C(=O)CCCn2cc(nn2)CO[C@H]1CN(C)S(=O)(=O)c1ccc(Oc2ccccc2)nc1`, for which the relative growth was inactive: 0.984.

With `CC(=O)OCC1=C(C(=O)[O-])N2C(=O)C(NC(=O)Cc3cccs3)C2SC1.[Na+]` (configuration not stated), the relative growth is active: 0.0435.

Regarding `C[C@@H]1CN([C@H](C)CO)S(=O)(=O)c2ccc(C3=CCCC3)cc2O[C@H]1CN(C)C(=O)Cc1ccncc1`, the relative growth is inactive: 0.991.

Turning to `COc1ccccc1C(=O)Nc1ccc2c(c1)C(=O)N(C)[C@H]1CC[C@H](CC(=O)NCCc3ccncc3)O[C@H]1CO2`, the relative growth was inactive: 1.

As to `O=C(C[C@H]1CC[C@H](NC(=O)c2cnccn2)[C@@H](CO)O1)NCc1ccccc1F`, the relative growth is inactive: 0.994.

With `O=C(C[C@@H]1CC[C@@H]2[C@H](COC[C@@H](O)CN2S(=O)(=O)c2ccccc2)O1)N[C@H]1CCN(Cc2ccccc2)C1`, the relative growth is inactive: 0.994.

As for `C[C@@H]1CCCCO[C@H](CN(C)Cc2ccc(C(=O)O)cc2)[C@H](C)CN([C@@H](C)CO)C(=O)c2cc(NC(=O)Nc3ccccc3)ccc2O1`, the relative growth is inactive: 0.998.

On to `CC(C)NC(=O)N(C)C[C@H]1Oc2ccc(NC(=O)CCN3CCOCC3)cc2CC(=O)N([C@H](C)CO)C[C@@H]1C`, for which the relative growth was inactive: 0.974.

Take `COc1ccc(NC(=O)N(C)C[C@H]2OCc3ccccc3-c3c(n(C)c4ccccc34)C(=O)N([C@H](C)CO)C[C@@H]2C)c(OC)c1`: the relative growth was inactive: 0.97.

In the case of `C=CCNC1=NS(=O)(=O)c2ccccc21`, the relative growth is inactive: 1.

With `CC(C)NC(=O)Nc1ccc2c(c1)C(=O)N([C@@H](C)CO)C[C@H](C)[C@@H](CN(C)S(=O)(=O)c1ccc(Cl)cc1)O2`, the relative growth is inactive: 0.919.

Take `Cc1noc(C)c1S(=O)(=O)Nc1ccc2c(c1)C(=O)N([C@H](C)CO)C[C@@H](C)[C@H](CN(C)S(=O)(=O)c1cccs1)O2`: the relative growth was inactive: 1.

For the compound `CCCCCCCC/C=C\C/C=C\C/C=C\CCCC(=O)O`, the relative growth is inactive: 0.912.

In the case of `CC(=O)OCC(=O)C1(O)CCC2C3CCC4=CC(=O)C=CC4(C)C3(Cl)C(Cl)CC21C` (configuration not stated), the relative growth is inactive: 1.12.

As for `C[C@@H]1CN([C@@H](C)CO)C(=O)c2cc(NC(=O)CCN3CCOCC3)ccc2O[C@H]1CN(C)C(=O)Nc1ccccc1`, the relative growth is inactive: 0.999.

In the case of `O=C(C[C@H]1C[C@@H]2c3cc(NC(=O)C4CCOCC4)ccc3O[C@@H]2[C@@H](CO)O1)NCc1ccc2c(c1)OCO2`, the relative growth was inactive: 1.

For `COC(=O)c1c(CC[C@@H](CO)NC(=O)N2CCC[C@H]2Cn2cc(-c3ccccn3)nn2)oc(C(C)=O)c1C(=O)OC`, the relative growth is inactive: 0.994.

Take `C[C@@H]1CN([C@H](C)CO)C(=O)Cc2cc(NC(=O)Nc3ccc(C(F)(F)F)cc3)ccc2O[C@H]1CN(C)C(=O)Nc1ccc2c(c1)OCO2`: the relative growth is inactive: 1.03.

Regarding `COCC#Cc1cnc2c(c1)C(=O)N([C@@H](C)CO)C[C@H](C)[C@@H](CN(C)C(=O)c1ccc3c(c1)OCO3)O2`, the relative growth was inactive: 1.02.

`C[C@H]1CCCCO[C@H](CN(C)C(=O)Nc2cccc3ccccc23)[C@@H](C)CN([C@@H](C)CO)C(=O)c2cc(NC(=O)Nc3ccc(C(F)(F)F)cc3)ccc2O1`: the relative growth is inactive: 1.02.

Consider `C[C@@H]1CN([C@H](C)CO)C(=O)c2cc(NC(=O)NC3CCCCC3)ccc2O[C@@H]1CN(C)Cc1ccc(C(F)(F)F)cc1`, for which the relative growth was inactive: 0.996.

Take `C[C@H]1CN([C@@H](C)CO)C(=O)c2ccccc2-c2ccccc2CO[C@@H]1CN(C)Cc1ccc(C(F)(F)F)cc1`: the relative growth is inactive: 1.05.

Consider `COc1ccc(CN(C)C[C@H]2OCCCC[C@H](C)Oc3ccc(NS(=O)(=O)c4c(C)noc4C)cc3C(=O)N([C@H](C)CO)C[C@H]2C)cc1`, for which the relative growth is inactive: 0.965.

Turning to `COC(=O)c1cn(CCNC(=O)[C@@H](NS(=O)(=O)c2ccc(C)cc2)C(C)C)nn1`, the relative growth was inactive: 0.976.

As for `OC[C@H]1O[C@@H](n2cnc3c(N[C@@H]4CCOC4)ncnc32)[C@H](O)[C@@H]1O`, the relative growth is inactive: 0.957.

In the case of `O=C(C[C@@H]1CC[C@H]2[C@@H](COC[C@@H](O)CN2S(=O)(=O)c2cccc(Cl)c2)O1)NC1Cc2ccccc2C1`, the relative growth is inactive: 0.993.

With `CC(=O)OC[C@@H]1O[C@H](O[C@@H]2CC[C@]34C[C@]35CC[C@]3(C)[C@@H]([C@@H](C)[C@H]6C[C@@H](O)C(C)(C)O6)CC[C@@]3(C)[C@H]5CC[C@H]4[C@H]2C)[C@@H](O)[C@H](OC(C)=O)[C@@H]1O[C@H]1O[C@@H](CO)[C@@H](O[C@H]2O[C@@H](CO)[C@@H](O)[C@@H](O)[C@@H]2O)[C@@H](O[C@H]2O[C@@H](C)[C@@H](O)[C@@H](O)[C@@H]2O)[C@@H]1O`, the relative growth is inactive: 0.931.

Turning to `COc1ccc(S(=O)(=O)N(C)C[C@H]2Oc3c(NS(=O)(=O)c4c(C)noc4C)cccc3C(=O)N([C@@H](C)CO)C[C@H]2C)cc1`, the relative growth was inactive: 1.04.

Consider `O=C(N[C@H]1CC=CC[C@H](CC(=O)N(CCO)Cc2ccccc2)C(=O)NCC(c2ccccc2)OC1=O)OCC1c2ccccc2-c2ccccc21` (some centres not stated), for which the relative growth is inactive: 0.933.

Take `O=C(N[C@@H]1CC[C@@H](CCn2cc(C3(O)CCCC3)nn2)O[C@H]1CO)C1CCOCC1`: the relative growth is inactive: 1.

`C[C@H](CO)N1C[C@H](C)[C@H](CN(C)C(=O)Nc2ccc(C(F)(F)F)cc2)Oc2c(NS(C)(=O)=O)cccc2C1=O`: the relative growth is inactive: 0.951.

As to `OCC1OC(Oc2cc(O)cc(C=Cc3ccc(O)cc3)c2)C(O)C(O)C1O` (configuration not stated), the relative growth was inactive: 0.931.

As for `C[C@H]1CN([C@@H](C)CO)C(=O)c2cccc(NC(=O)CCCCCC(=O)Nc3ccccc3N)c2O[C@H]1CN(C)C(=O)Nc1cccc2ccccc12`, the relative growth is inactive: 0.992.

Consider `C[C@H](CO)N1C[C@H](C)[C@H](CN(C)C(=O)C2CCCCC2)OCCCC[C@H](C)Oc2ccc(NS(=O)(=O)c3cccs3)cc2C1=O`, for which the relative growth is inactive: 1.01.

In the case of `C[C@H](CO)N1C[C@H](C)[C@H](CN(C)C(=O)CN(C)C)Oc2ncc(-c3ccc(C(=O)N(C)C)cc3)cc2C1=O`, the relative growth was inactive: 0.976.

As for `O=C(C[C@H]1C[C@@H]2c3cc(NC(=O)Nc4ccccc4F)ccc3O[C@@H]2[C@@H](CO)O1)NCc1ccc(Oc2ccccc2)cc1`, the relative growth is inactive: 0.994.
